Our source for the binding signal values is article PMC9911399, “Two distinct binding modes provide the RNA-binding protein RbFox with extraordinary sequence specificity”.

Substitutions are numbered along the chain they refer to; changes in the protein carry UniProt numbers. Some of the results follow.

The chains are these.
T1: RBFOX1 RRM RbFoxmut (Fox-RRM*) (Homo sapiens, UniProt Q9NWB1 109-208, R118D;E147R;N151S;E152T)
T1 sequence: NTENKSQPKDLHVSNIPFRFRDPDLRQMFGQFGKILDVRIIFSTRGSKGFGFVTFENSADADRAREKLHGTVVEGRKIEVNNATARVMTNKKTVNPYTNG

B1: UGUUCGG (DNA:RNA)
RNA: GGGAGACCGGAAUUCAGAUUGUCCUGUUCGGUUAAAUCCCGUCGUAGCCACCA
DNA 1: CAATCTGAATTCCGGTCTCCC
DNA 2: TGGTGGCTACGACGGGATT
B2: AACCACA (DNA:RNA)
RNA: GGGAGACCGGAAUUCAGAUUGUCCAACCACAUUAAAUCCCGUCGUAGCCACCA
DNA 1: CAATCTGAATTCCGGTCTCCC
DNA 2: TGGTGGCTACGACGGGATT
B3: CCAUUAA (DNA:RNA)
RNA: B2 RNA with A25C, A26C, C27A, C28U, A29U, C30A
DNA 1: CAATCTGAATTCCGGTCTCCC
DNA 2: TGGTGGCTACGACGGGATT
B4: AGUCAUG (DNA:RNA)
RNA: B2 RNA with A26G, C27U, C30U, A31G
DNA 1: CAATCTGAATTCCGGTCTCCC
DNA 2: TGGTGGCTACGACGGGATT
B5: AUUCCUA (DNA:RNA)
RNA: B2 RNA with A26U, C27U, A29C, C30U
DNA 1: CAATCTGAATTCCGGTCTCCC
DNA 2: TGGTGGCTACGACGGGATT
B6: UAUCAGG (DNA:RNA)
RNA: B1 RNA with G26A, U28C, C29A
DNA 1: CAATCTGAATTCCGGTCTCCC
DNA 2: TGGTGGCTACGACGGGATT
B7: CCUGCAC (DNA:RNA)
RNA: B1 RNA with U25C, G26C, U28G, G30A, G31C
DNA 1: CAATCTGAATTCCGGTCTCCC
DNA 2: TGGTGGCTACGACGGGATT
B8: UGCUACC (DNA:RNA)
RNA: B2 RNA with A25U, A26G, C28U, A31C
DNA 1: CAATCTGAATTCCGGTCTCCC
DNA 2: TGGTGGCTACGACGGGATT
B9: CGGAGAC (DNA:RNA)
RNA: B1 RNA with U25C, U27G, U28A, C29G, G30A, G31C
DNA 1: CAATCTGAATTCCGGTCTCCC
DNA 2: TGGTGGCTACGACGGGATT

In the experiment the target is T1, RBFOX1 RRM RbFoxmut (Fox-RRM*). The experiment in a line: EMSA; HiTS-Eq, 1 nM pool, 10 min; buffer printed only for the single-RNA assays: 10 mM Tris pH 7.5, 150 mM NaCl, 3.4 mM EDTA, 0.001% NP-40, 30 C. Particulars: tags: His6 N-terminal (pET28a); label: 5' 32P. The essentials: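 Relative association constants, normalised to the cognate motif, were derived by comparing read counts of each RNA species with those of the control reaction. The RNA sequenced was the free fraction, separated by 8% native PAGE after a 10 min equilibration in 50 µL of 1 nM 5′-radiolabelled RNA (7 randomized nucleotides) with increasing concentrations of purified wild-type or mutant RbFox RRM.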
(In EMSA bound probe runs differently from free probe, usually more slowly.)
Turning to B1, the binding signal is 0.154 KA relative to UGCAUGU.
The figure for B2 is 0.078 KA relative to UGCAUGU; for B3 it is 0.12 KA relative to UGCAUGU.
As for B4, the binding signal is 0.167 KA relative to UGCAUGU.
B5: the binding signal was 0.098 KA relative to UGCAUGU.
For B6 the value was 0.0783 KA relative to UGCAUGU; for B7, 0.09 KA relative to UGCAUGU.
The figure for B8 is 0.147 KA relative to UGCAUGU; for B9 it is 0.0725 KA relative to UGCAUGU.
